In PubChem BioAssay AID1345083 (National Center for Advancing Translational Sciences (NCATS), 2018):
About 6,200 (6.6%) of roughly 94,000 compounds were called active. This list was built around the results that the source calls inconclusive (neither active nor inactive); the mix of calls is not that of the screen. Calls come from the whole dose curve; as a rule, active = well fitted inhibition curve with a large enough effect; inconclusive = small, poorly fitted or top-dose-only effect; inactive = flat fitted curve, though single readings scatter. Potencies of inconclusive entries are doubtful fits and often do not repeat.

Assay: Cytotoxic Profiling in HEK 293 Cell Line of Diverse Libraries Using Quantitative High-Throughput Screening; note: nearly all actives have a fitted effect of over 60% in size
Details: HEK 293 viability, ATP luminescence (CellTiter-Glo), 48-72 h; activity change, negative = cytotoxicity: at 115 µM (top of the series) unless noted; series mostly up to 115 µM
Excerpt: Cell-based phenotypic screening is a commonly used approach to discover biological pathways, novel drug targets, chemical probes and high-quality hit-to-lead molecules. Many hits identified from high-throughput screening campaign are ruled out through a series of follow-up potency, selectivity/specificity, and cytotoxicity assays. Prioritization of molecules with little or no cytotoxicity for a more in-depth downstream evaluation influence the future direction of projects, so cytotoxicity profiling of the screening libraries at early stage is essential for increasing the likelihood of candidate success. In this study, we analyzed results from a cell-based cytotoxicity screening campaign, comprising nearly 10,000 compounds in NCATS annotated libraries, and over 100,000 compounds in a diversity library, evaluated in four normal cell lines (HEK 293, NIH 3T3, CRL-7250 and HaCat) and a cancer cell line (KB 3-1, a HeLa subline) with overall screening outcomes, hit rates, pan-activity and selectivity. For the annotated library, we also examined the primary targets and mechanistic pathways regularly associated with cell death. To our knowledge, this is the first study to use high-throughput screening to profile large libraries for cytotoxicity assessment in both normal and cancer cell lines. In summary, the results generated here constitutes a valuable resource for the scientific community and provides insight on identifying cytotoxic compounds with particular mechanisms of action, and prioritizing compounds with suitable cytotoxicity profile for further evaluation.
HEK 293 cells were seeded into white 1536-well plates using a Multidrop Combi peristaltic dispenser (ThermoFisher, Waltham, MA) at a density of 250 cells/well in 5 uL of medium respectively. A pintool (Kalypsys) was used to transfer 23 nL of compound solution to the 1536-well assay plates. After 48 or 72 hr incubation at 37 degree Celsius, 5% CO2 and 95% humidity, 2.5 uL of CellTiter-Glo (Promega) was dispensed into each well using a dispenser (Aspect Automation, St. Paul, MN) with solenoid valves (Lee Valves, Westbrook CT). Plates were left at room temperature for 10 min before imaging the ATP-coupled luminescence using a ViewLux microplate imager (PerkinElmer, Waltham, MA).
% is set by controls: 0 for no effect and ±100 for the full control effect; potency is the fitted concentration of half-maximal effect; tags give direction and shape of the fitted curve.

Row | SMILES | activity change, negative = cytotoxicity | Potency | outcome
1 | CN(C)S(=O)(=O)N1CC(N2CC(C(=O)N3CCCC3)CC2=O)C1 (stereo not drawn) | inactive: -1.3% |  | 
2 | CN1CCC(N2CCN(C(=O)CCC3CCCCC3)CC2)C1=O (stereo not drawn) |  | inconclusive: 35.5 µM [inhibitor, single point] | 
3 | O=C(NCC1CCCCC1)c1cn2cc(-c3ccc(F)cc3)sc2n1 | inactive: -20.8% |  | 
4 | C[C@H](O)c1c(-c2ccc(Cl)cc2)noc1C(=O)NC1CC1 |  | active: 112 µM | 
5 | Cc1ccccc1C(=O)NC1CCCN(c2ccc3nnc(-c4ccccc4)n3n2)C1 (stereo not drawn) |  | inconclusive: 35.5 µM [inhibitor, partial curve, poor fit] | 
6 | Cc1ccc(C(=O)NC2CCN(C(=O)N3CC4CC(C3)[C@H]3CCCC(=O)N3C4)CC2)cc1 (stereo partly drawn) | inactive: -10.6% |  | 
7 | Cc1c(F)cccc1NC(=O)N1CC2CC(C1)[C@H]1CCCC(=O)N1C2 (stereo partly drawn) | inactive: 7.24% |  | 
8 | Cc1cccc(CN2C[C@@H]3C(=O)N(CCN4CCc5ccccc5C4)C(=O)[C@@H]3C2)c1 |  | inconclusive: 50.1 µM [inhibitor, partial curve, poor fit] | 
9 | COCc1ncc(C)n1CC1CCCN(Cc2cccnc2)C1 (stereo not drawn) | inactive: 2% |  | 
10 | Cc1noc(C)c1Cc1ccc(C(=O)N2CCC(OCCOc3ccccc3)CC2)o1 |  | active: 39.8 µM | 
11 | O=C(CCc1nc(C2CCCN2Cc2ccc3[nH]ccc3c2)no1)N1CCCC1 (stereo not drawn) | inactive: -15.8% |  | 
12 | CC(C)c1ccc(C(=O)N2C3CCCC2CC(=O)C3)cc1 |  | inconclusive: 126 µM [inhibitor, single point] | 
13 | CC(C)CCN1CCC(N2CCN(C(=O)CC3CCCCC3)CC2)C1=O (stereo not drawn) |  | inconclusive: 44.7 µM [inhibitor, partial curve, poor fit] | 
14 | Cn1ncc2c(C(=O)NCc3ccc4c(c3)OCO4)cc(-c3ccc(Cl)nc3)nc21 | inactive: -2.46% |  | 
15 | Cc1nn(-c2ccccc2)c2c1C(C1CC1)N(C1CCN(C(=O)c3cccc(Cl)c3)CC1)C2=O (stereo not drawn) |  | inconclusive: 14.1 µM [inhibitor, single point] | 
16 | O=C(NCc1cccs1)C1CN(S(=O)(=O)c2cccnc2)CC12CCCCC2 (stereo not drawn) | inactive: 6.84% |  | 
17 | O=C(C1CC1)N1CCC(C(=O)N2CCCC(c3nc4ncccc4[nH]3)C2)CC1 (stereo not drawn) | inactive: -2.96% |  | 
18 | CN(C)CC1(O)CCC2(CCN(C(=O)c3ccc4ccccc4n3)CC2)CC1 | inactive: -3.02% |  | 
19 | Cc1ccc(-c2ccc3nnc(CNC(=O)c4cccnc4)n3n2)cc1 |  |  | inactive
20 | COc1cccc(-c2cc3c(=O)n(CCNC(=O)Cc4cccc(F)c4)ccn3n2)c1 |  | inconclusive: 79.4 µM [inhibitor, single point] | 
21 | O=C(c1ccccc1)N1CCN(c2cc(-c3ccccc3)[nH]n2)CC1 |  | inconclusive: 50.1 µM [inhibitor, partial curve, poor fit] | 
22 | COc1ccccc1-c1cccc(COc2ccc3c(cnn3CC[S+](C)(=O)[O-])c2)c1 |  | inconclusive: 44.7 µM [inhibitor, full curve] | 
23 | O=C(NCC1CCCCO1)c1ccc(OC2CCN(C(=O)C3CC3)CC2)cc1 (stereo not drawn) |  | inconclusive: 89.1 µM [inhibitor, partial curve, poor fit] | 

Row | SMILES | activity change, negative = cytotoxicity | Potency | outcome
24 | O=C1[C@H]2CN(Cc3ccc(F)cc3)C[C@H]2C(=O)N1CCN1CCc2ccccc2C1 |  | inconclusive: 70.8 µM [inhibitor, single point] | 
25 | O=C1c2c(nc(CNCc3ccc4c(c3)OCO4)n2Cc2ccccc2)NCCN1Cc1ccccc1F |  | inconclusive: 50.1 µM [inhibitor, partial curve, poor fit] | 
26 | Cc1cc(F)ccc1OC1CN(Cc2ccc(N(C)C)cc2)C1 |  | active: 79.4 µM | 
27 | COc1ccc(Cn2c(=O)c(C(=O)NC3CC3)nc3cccnc32)cc1 |  |  | inactive
28 | OCC1(CN2CCCC2)CCN(Cc2ccc(Cl)cc2F)CC1 |  | inconclusive: 63.1 µM [inhibitor, partial curve, poor fit] | 
29 | COc1ccc(-c2cc3nc4c(c(=O)n3[nH]2)CN(C(=O)c2sccc2C)CC4)cc1 |  | inconclusive: 63.1 µM [inhibitor, single point] | 
30 | O=C1NCCOCCCN(C(=O)C2CCCC2)[C@H]2CCCC[C@@H]12 |  | inconclusive: 100 µM [inhibitor, partial curve, poor fit] | 
31 | Cc1noc(-c2ccccc2Cl)c1C(=O)NCc1ccc(F)cc1F |  | inconclusive: 50.1 µM [inhibitor, partial curve, poor fit] | 
32 | O=C1[C@@H]2C[C@@H](O)CN2C2(CN(Cc3ccccc3)C2)C(=O)N1Cc1cccc(Cl)c1 |  | inconclusive: 112 µM [inhibitor, partial curve, poor fit] | 
33 | O=C([C@@H]1C[C@H](F)CN1S(=O)(=O)Cc1ccccc1)N1CCc2ccccc2C1 |  | inconclusive: 89.1 µM [inhibitor, single point] | 
34 | O=C(NC1CCC(O)CC1)C1CCCN(c2nc(-c3ccccc3)nc3c2CCC3)C1 (stereo not drawn) |  | inconclusive: 25.1 µM [inhibitor, full curve, poor fit] | 
35 | CN1CCN([C@@H]2[C@H](O)[C@H](CO)O[C@@H]2CNC(=O)c2ccco2)CC1 |  | inconclusive: 112 µM [inhibitor, single point] | 
36 | OCC1(CC2CC2)CCCN(Cc2cccc(OCc3ccccn3)c2)C1 (stereo not drawn) |  | inconclusive: 79.4 µM [inhibitor, partial curve, poor fit] | 
37 | COCc1noc(Cn2ncc(N(C)CCc3ccccc3)cc2=O)n1 | inactive: -26.6% |  | 
38 | CCOC(=O)c1cccc(NC(=O)N2CC[C@@H](CC(=O)O)[C@@H](CC)C2)c1 | inactive: -13.1% [at 172 µM] |  | 
39 | COCCN1C(=O)[C@H]2CN(Cc3cc(Cl)ccc3F)C[C@H]2C1=O |  | inconclusive: 22.4 µM [inhibitor, full curve] | 
40 | CSc1ccc(-c2cccc(C(=O)NCC(=O)NCc3cccc(C(F)(F)F)c3)c2)cc1 |  | active: 39.8 µM | 
41 | COc1ccc(C(=O)N2CCC(N3CC4(CCCCC4)C3c3ccncc3)CC2)c(OC)c1 (stereo not drawn) |  | inconclusive: 63.1 µM [inhibitor, partial curve, poor fit] | 
42 | COc1ccccc1CNC(=O)C1CC(=O)N(c2n[nH]c3cccc(F)c23)C1 (stereo not drawn) | inactive: -26.6% |  | 
43 | N#Cc1ccc(CN2CCC3(CC2)CC(=O)c2ccccc2O3)cc1 |  | inconclusive: 44.7 µM [inhibitor, full curve] | 
44 | COc1cccc(CNC(=O)C2CCN(c3nccc(Nc4ccccc4OC)n3)CC2)c1 |  | inconclusive: 50.1 µM [inhibitor, partial curve, poor fit] | 
45 | O=C(NCc1ccc(Cl)cc1)c1cc(-c2ccc[nH]2)n[nH]1 |  | inconclusive: 89.1 µM [inhibitor, partial curve, poor fit] | 
46 | CN1CC(=O)N(C2CCCNCC2)Cc2c1ncnc2N1CCC(N2CCCCC2)CC1 (stereo not drawn) | inactive: -6.85% |  | 

Row | SMILES | activity change, negative = cytotoxicity | Potency | outcome
47 | O=C(NC[C@H]1O[C@@H](CO)[C@@H](O)[C@H]1N1CCN(c2ccccc2)CC1)Nc1ccc(F)cc1F | inactive: 2.97% |  | 
48 | O=C(c1ccncc1)N1CC[C@](O)(c2ccccc2)[C@H](N2CCCC2)C1 | inactive: -6.12% |  | 
49 | O=C(C1CCCCN1Cc1ccc(-c2ccsc2)cc1)N1CCOCC1 (stereo not drawn) |  | inconclusive: 89.1 µM [inhibitor, single point] | 
50 | O=C(NCc1ccncc1)c1ccc2nccn2c1 | inactive: -1.78% |  | 
51 | CCN(Cc1ccncc1)C(=O)[C@@H]1CCCN(Cc2ccccc2)[C@@H]1COC |  |  | inactive
52 | COc1ccc([C@H]2C[C@@H](O)[C@@H](O)[C@@H]2NC(=O)c2cc(C)oc2C(F)(F)F)cc1 | inactive: -20.6% [at 172 µM] |  | 
53 | C[S+](=O)([O-])NC1CCN(C(=O)c2ccc(-c3ncccc3C#N)cc2)CC1 | inactive: -26.5% |  | 
54 | N[C@H]1CO[C@H]2[C@@H]1OC[C@@H]2n1cc(CC2CCCCC2)nn1 | inactive: 1.51% [at 230 µM] |  | 
55 | O=C(Nc1ccc2c(c1)C(=O)N1CCC[C@H]1C(=O)N2)c1cc(-c2cccnc2)n[nH]1 | inactive: -9.34% |  | 
56 | COc1ccc(C(=O)N2CCC3(CC2)CC(Cc2nc(-c4ccccc4)no2)CCO3)cc1 (stereo not drawn) |  | active: 12.6 µM | 
57 | CC(C)(C)NC(=O)C[C@@H]1CCNC[C@@H]1Cc1cc(-c2ccc(C(C)(C)C)cc2)on1 |  | active: 12.6 µM | 
58 | O=C(NCC1CC1)c1nc2c(o1)CCN(Cc1cccc(O)c1)CC2 |  | inconclusive: 126 µM [inhibitor, single point] | 
59 | COc1ccc([S+](=O)([O-])c2nnn3c2nc(NCc2ccc(F)cc2)c2ccccc23)cc1 |  | inconclusive: 22.4 µM [inhibitor, full curve, poor fit] | 
60 | COc1ccc(N2C(=O)C3(CCCCC3)C2C(=O)NCCCN2CCCC2)cc1 (stereo not drawn) |  | inconclusive: 79.4 µM [inhibitor, partial curve, poor fit] | 
61 | CC(=O)Nc1ccc(-c2nnc3n2CCN(C(=O)c2ccccc2F)C3)cc1 | inactive: 4.84% |  | 
62 | COc1ccccc1-c1cc(C(=O)NCCc2ccccc2F)nn2cnnc12 |  | inconclusive: 89.1 µM [inhibitor, single point] | 
63 | O=C(Cc1c[nH]c2ncc(-c3cccnc3)cc12)NC1CCOCC1 | inactive: -18.2% [at 172 µM] |  | 
64 | O=C(Nc1cccc(C(F)(F)F)c1)N[C@H]1CO[C@H]2[C@@H]1OC[C@@H]2n1cc(-c2ccccc2)nn1 |  | inconclusive: 44.7 µM [inhibitor, partial curve, poor fit] | 
65 | c1ccc2c(c1)OCC(CCn1ccnc1-c1cc3n(n1)CCNC3)O2 (stereo not drawn) |  | inconclusive: 89.1 µM [inhibitor, single point] | 
66 | Cc1nc(-c2ccc(F)cc2)n(CC(=O)Nc2ccc(C(F)(F)F)cc2)c(=O)c1CCO |  | inconclusive: 50.1 µM [inhibitor, partial curve, poor fit] | 
67 | COCCOC(=O)C1=C(C)N=C2SC=C(CC(=O)N3CCCC3)N2C1c1cccc(F)c1 (stereo not drawn) |  | inconclusive: 100 µM [inhibitor, partial curve, poor fit] | 
68 | Cc1ccncc1C(=O)N1CCN(C(=O)N2CC3CC(C2)[C@H]2CCCC(=O)N2C3)CC1 (stereo partly drawn) | inactive: -13.3% |  | 
